Results: article PMC2733743 (The Journal of Cell Biology, 2009)

Target: purified recombinant murine cortactin WT (murine, UniProt Q60598 1-546)
Assay: pull-down

Chain of UniProt Q60598 (Q60598 whole entry): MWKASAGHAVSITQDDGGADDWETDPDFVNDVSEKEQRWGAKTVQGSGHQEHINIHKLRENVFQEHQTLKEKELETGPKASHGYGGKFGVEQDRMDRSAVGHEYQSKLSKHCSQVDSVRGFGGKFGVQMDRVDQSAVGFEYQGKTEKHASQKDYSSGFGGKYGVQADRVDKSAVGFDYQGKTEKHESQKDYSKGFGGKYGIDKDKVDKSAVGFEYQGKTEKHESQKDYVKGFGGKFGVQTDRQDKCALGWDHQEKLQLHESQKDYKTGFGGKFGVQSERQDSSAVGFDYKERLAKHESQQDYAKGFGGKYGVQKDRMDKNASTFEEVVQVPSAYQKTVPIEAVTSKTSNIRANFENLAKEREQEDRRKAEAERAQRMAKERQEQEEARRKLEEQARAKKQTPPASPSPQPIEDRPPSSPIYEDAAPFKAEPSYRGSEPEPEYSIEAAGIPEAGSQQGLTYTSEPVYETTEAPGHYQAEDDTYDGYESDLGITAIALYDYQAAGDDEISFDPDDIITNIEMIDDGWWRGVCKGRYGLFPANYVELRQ

Kd: 3.5 ± 1.1 µM
B1: purified recombinant cofilin (natural protein)
chain: not shown
